# Screen size: about 310,000 compounds; about 14,000 (4.5%) showed an effect of 50% or more. Effects have a minus sign here. The list shows a part of the results.
# Molecular target: human ether-à-go-go-related gene (hERG) potassium channel (human, UniProt Q12809)
# Assay: primary screen, population patch clamp on CHO cells stably expressing hERG
# 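Also: peak tail current of the secondary pulse compared with the same well before compound.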
# Chain of human ether-à-go-go-related gene (hERG) potassium channel (Q12809 whole entry, looked up): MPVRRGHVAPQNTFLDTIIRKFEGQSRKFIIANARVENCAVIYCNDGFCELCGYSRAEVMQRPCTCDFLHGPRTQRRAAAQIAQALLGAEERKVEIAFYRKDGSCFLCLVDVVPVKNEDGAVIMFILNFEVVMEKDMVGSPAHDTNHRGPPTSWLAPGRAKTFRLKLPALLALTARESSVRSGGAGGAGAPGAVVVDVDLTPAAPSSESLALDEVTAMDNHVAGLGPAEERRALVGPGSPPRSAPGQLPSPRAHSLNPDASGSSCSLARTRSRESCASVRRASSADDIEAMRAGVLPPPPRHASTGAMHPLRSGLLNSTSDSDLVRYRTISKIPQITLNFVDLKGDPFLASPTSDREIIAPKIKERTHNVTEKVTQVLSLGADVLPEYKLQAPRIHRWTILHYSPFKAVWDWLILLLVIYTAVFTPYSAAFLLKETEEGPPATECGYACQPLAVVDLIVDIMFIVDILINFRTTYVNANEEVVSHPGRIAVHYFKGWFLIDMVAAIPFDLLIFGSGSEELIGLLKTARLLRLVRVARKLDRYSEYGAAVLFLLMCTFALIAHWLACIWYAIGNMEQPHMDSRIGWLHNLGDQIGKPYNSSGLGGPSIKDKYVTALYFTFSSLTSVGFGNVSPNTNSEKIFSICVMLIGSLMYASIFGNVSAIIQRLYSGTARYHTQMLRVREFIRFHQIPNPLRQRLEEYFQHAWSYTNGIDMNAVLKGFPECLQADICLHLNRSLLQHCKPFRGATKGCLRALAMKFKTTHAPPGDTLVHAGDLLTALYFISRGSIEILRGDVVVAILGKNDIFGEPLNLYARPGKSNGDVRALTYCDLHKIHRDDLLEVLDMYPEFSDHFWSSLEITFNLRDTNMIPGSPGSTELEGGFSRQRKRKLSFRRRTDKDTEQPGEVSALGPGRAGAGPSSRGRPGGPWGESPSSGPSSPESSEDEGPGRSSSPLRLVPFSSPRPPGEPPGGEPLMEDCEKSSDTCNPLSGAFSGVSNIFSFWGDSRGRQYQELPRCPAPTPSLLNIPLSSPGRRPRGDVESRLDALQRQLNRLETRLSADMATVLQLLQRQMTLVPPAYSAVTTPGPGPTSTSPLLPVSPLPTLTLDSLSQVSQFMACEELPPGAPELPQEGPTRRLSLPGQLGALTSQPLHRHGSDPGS
row,Compound,"hERG current change (%, negative = inhibition) at 10uM [%]"
1,CNC(=S)N(Cc1ccc(OC)cc1)C1CC(=O)N(c2ccc(Cl)cc2)C1=O (stereo not shown),-12.6
2,O=[N+]([O-])c1ccc(Cl)c2c1C1C=CCC1C(c1ccccn1)N2 (stereo not shown),17.4
3,Cc1nc(C(=O)O)cc2c1[nH]c1ccccc12,2.13
4,CCC(Cc1ccccc1)NS(=O)(=O)c1ccc2c(c1)NC(=O)C(C)S2 (stereo not shown),11.4
5,Cc1cc(N2C(=O)C(O)=C(C(=O)c3ccc(C)o3)C2c2cccc(Oc3ccccc3)c2)no1 (stereo not shown),16.4
6,O=C(c1ccc2c(=O)n(Cc3ccco3)c(=S)[nH]c2c1)N1CCN(Cc2ccccc2)CC1,-5
7,COC(=O)c1ccc(N/C(C)=C/C(=O)c2ccc(C)o2)cc1,9.09
8,COc1ccc(C(C(=O)NC2CCCC2)N(CC2CCCO2)C(=O)Cn2nnc(-c3ccc(C)o3)n2)cc1 (stereo not shown),12.9
9,Br.C/C(=N\NC1=N[C@H]2CS(=O)(=O)C[C@H]2S1)c1ccccc1,14
10,CCOC(=O)c1nc2cc3n(c(CC(C)C)c-2c1C)CC(C)=C3C.Cl,-74
11,C/C(=N\NC(=O)COc1ccc(C)cc1[N+](=O)[O-])c1ccc2c(c1)OCCO2,4.86
12,CN(C)/C=C(/C(=O)c1ccccc1)S(=O)(=O)c1ccc(Cl)cc1,-0.572
13,S=C(NCCCN1CCOCC1)Nc1ccc(Cl)cc1Cl,-30.3
14,O=C(O)c1cccc(NS(=O)(=O)/C=C/c2ccccc2)c1,1.99
15,Cc1ccc(-n2nnnc2SCC(=O)Nc2sc(C)c(C)c2C#N)cc1C,3.56
16,S=C(NCc1cccnc1)Nc1ccc(Oc2ccccc2)cc1,3.01
17,Brc1cccc(C2Nc3cccc4cccc(c34)N2)c1,14.9
18,CCOCCCNC(=O)Cc1ccc(Br)cc1,-1.41
19,COC(=O)c1c(C)oc2ccc(N(C(C)=O)S(=O)(=O)c3ccccc3)cc12,-7.71
20,COc1ccc(N2C(=O)/C(=C/c3cccs3)C(=O)NC2=S)cc1,25.1
21,Cc1nc(-c2ccccc2)sc1C(=O)CSc1ccc(Br)cc1,7.71
22,COc1ccccc1/C=C1\SC(=S)N(CCC(=O)Nc2cc(C)on2)C1=O,15.6

row,Compound,"hERG current change (%, negative = inhibition) at 10uM [%]"
1,COc1ccc2[nH]c(=O)c(CN(CCc3cccc(C)c3)C(C)=O)cc2c1,-36.5
2,COc1ccc(NC(=O)CCS(=O)(=O)c2ccc3c(c2)oc(=O)n3C)cc1OC,18
3,O=C(Nc1ccccn1)c1cc2ccccc2cc1O,20.6
4,COC(=O)C1CC(Cl)CN1c1ncc(C(F)(F)F)cc1Cl (stereo not shown),7.81
5,COc1c(Cl)cc(Cl)cc1C(=O)Nc1ccc(NC(=O)c2cccs2)cc1,13.2
6,O=C(CSCc1ccccc1)NNc1c(F)c(F)cc(F)c1F,10.3
7,O=C(O)c1cnn(-c2ccccc2)c1-c1ccncc1,24.9
8,CC(=O)Nc1ccc(NC(=O)CC2SC(=O)N(CC(=O)c3ccccc3)C2=O)cc1 (stereo not shown),7.25
9,COCCn1c(N)c(N(Cc2ccccc2)C(=O)c2ccc(-c3ccc(Cl)cc3)o2)c(=O)[nH]c1=O,-45.5
10,COc1ccc(OC)c(C2C(C(=O)c3sc(C)nc3C)=C(O)C(=O)N2CCN2CCOCC2)c1 (stereo not shown),25.5
11,Cc1nc2c(-c3ccc(F)cc3)c(C)nn2c(C)c1CCC(=O)N1CCC2(CC1)OCCO2,-67.8
12,O=C(NCc1ccncc1)c1ccc(Br)cc1,-34.2
13,CC1CCCN(C(=O)COC(=O)CSc2ccc(C(N)=O)cc2[N+](=O)[O-])C1 (stereo not shown),-6.73
14,N#CCCN(C(=O)CN1C(=O)NC2(CCCC2)C1=O)c1ccccc1F,9.15
15,COc1ccc(-c2nnc(SCc3cc(C)ccc3C)n2N)cc1,-8.52
16,O=C(Nc1ccc(C(=O)N2CCC([NH+]3CCOCC3)CC2)cc1)c1ccc(Br)o1.O=C(O)C(F)(F)F,3.26
17,CC1Cc2cc(S(=O)(=O)N3CCC(C(=O)NCc4ccco4)CC3)ccc2N1C(=O)C1CCC1 (stereo not shown),-5.05
18,CCN(CC)CC#CCC(O)(c1ccccc1)C1CCCCC1.Cl (stereo not shown),-28
19,Cn1cnnc1SCc1ccc(C(=O)NN)cc1,-10.1
20,COc1ccc(NC2CC(=O)N(C(C)C)C2=O)cc1 (stereo not shown),20.7
21,O=C(CSc1nnc(-c2ccccc2)o1)N1CCN(c2ccccc2)CC1,24.5
22,COc1ccc(CNC(=O)CCCn2nc(C)c3c(C)n(-c4ccc(C)cc4)nc3c2=O)cc1OC,-26

row,Compound,"hERG current change (%, negative = inhibition) at 10uM [%]"
1,CCOC(=O)C1CCN(C(=O)CCS(=O)(=O)c2ccc3c(c2)CCN3C(C)=O)CC1,13.5
2,CCOc1ccc(-n2ccnc(SCC(=O)NCc3cccc(OC)c3)c2=O)cc1,-26.2
3,O=C(c1cc2c(s1)CCCC2)N1CCN(c2ccccc2)CC1,5.61
4,CC(C)(C)OC(=O)NCCCCCNC(=O)c1[nH]cnc1C(=O)NC1CCN(C(=O)OC(C)(C)C)CC1,-78.1
5,N#CCC(=O)Nc1ccc(C(=O)OCC(=O)N=c2sccn2Cc2ccccc2Cl)cc1,-17.7
6,Cc1c2c(nc3ccccc13)CC(C)(C)CC2=O.Cl,0.994
7,O=C1CN(CC(=O)Nc2cccc(Cl)c2Cl)c2ccccc2N1,12.1
8,COc1ccc(C)cc1NC(=O)CCNS(=O)(=O)c1cccc(C(F)(F)F)c1,-27.6
9,COc1cc(C(=O)Nc2cccc(-c3nc4cc(C)ccc4o3)c2)cc(OC)c1OC,6.91
10,CCc1c(C)c2ccc(OCC(=O)N(C)C)c(C)c2oc1=O,-17.2
11,COc1ccc(CNc2nc3ccccc3n2C)c(OC)c1,-25
12,COc1ccc(C(=O)CSc2nnc(-c3ccco3)n2C)cc1,-12.1
13,CN(NC1OC(=O)c2ccccc21)c1ccc(C(F)(F)F)cc1[N+](=O)[O-] (stereo not shown),34.2
14,CC(=O)Nc1ccc(NC(=O)c2cc(-c3cc(C)cc(C)c3O)n[nH]2)cc1,31.6
15,COc1ccc(CN(CC(=O)NC(C)C)C(=O)CCC(=O)Nc2nccs2)cc1,9.18
16,NC(=S)Nc1cc2ccccc2c2ccccc12,6.65
17,COc1ccc(S(=O)(=O)N2CCCC2C(=O)n2nc(C)cc2C)cc1 (stereo not shown),14.1
18,CC(C)Cc1nc(N2CCOCC2)c(C#N)c2c1COC(C)(C)C2,-7.61
19,COCCNC(=O)C(=O)Nc1cc2c3c(c1)CC(=O)N3CCC2,19.4
20,COc1ccc(CNC(=O)Nc2cccc3ccccc23)cc1,4.84
21,CCn1cc(/C=C/C(=O)NCc2c(C)nn(C)c2C)cn1,-2.66
22,COCCN(C(=O)c1ccccc1F)c1nnc(-c2ccc(OC)cc2)s1,-3.34

row,Compound,"hERG current change (%, negative = inhibition) at 10uM [%]"
1,Cc1ccc(CN2CCNC(=O)C2CC(=O)NC2CCCCCC2)o1 (stereo not shown),9.02
2,COc1ccc(-n2nc(C(=O)NCc3cc(OC)ccc3OC)c3c4ccccc4n(C)c3c2=O)cc1,20.3
3,O=C(CSc1nnc(-c2cc3ccccc3cc2O)n1Cc1ccco1)c1ccc(F)cc1,-13.6
4,O=C(COc1ccccc1Cl)N1CCCCCCC1,-1.53
5,Clc1ccc(-c2nnc(-c3ccccc3)nc2-c2c[nH]c3ccccc23)cc1,29.7
6,COC(=O)c1ccc(CNC(=O)CCNC(=O)c2ccco2)cc1,-1.99
7,COc1ccccc1NC(=O)N1CCCC1,16.6
8,COc1cc(C(=O)Nc2nccs2)ccc1OCc1c(C)noc1C,15.3
9,O=C(CSc1nc2ccccc2[nH]1)NCc1ccc(F)cc1,-9.15
10,CN(CC(=O)Nc1ccc(Cl)c(C(F)(F)F)c1)C(=O)C1CC(=O)N(C2CCCC2)C1 (stereo not shown),-28.9
11,Cc1ccc2cccc(OCC(=O)Nc3ccc4c(c3)OCO4)c2n1,-15.5
12,COc1cccc(NC(=O)c2ccc(N3C(=O)C4CC=CCC4C3=O)cc2)c1 (stereo not shown),-3.88
13,Cc1ccc(N2C(=O)CN=C2Nc2nc(C)cc(C)n2)cc1,0.118
14,COC(=O)c1ccc(OCC2c3cc(OC)c(OC)cc3CCN2C(=O)C2CC2)cc1 (stereo not shown),-56.3
15,COC(=O)C1N[C@@H]([C@@H](NC(=O)COc2ccccc2)C(=O)NCc2ccsc2)SC1(C)C (stereo partly shown),-18.9
16,Cc1cc(C(=O)Cn2nc(C(=O)O)c3ccccc3c2=O)c(C)n1CCc1ccc(Cl)cc1,-10.4
17,CCCNC(=O)CN1C(=O)COc2ccc(S(=O)(=O)N3CC(C)CC(C)C3)cc21 (stereo not shown),-5.01
18,COc1ccc(NC(=S)N(CCCN2CCC(C)CC2)Cc2cccs2)cc1,-68.2
19,C=CCNC(=S)N1CCN(Cc2ccccc2)CC1.O=C(O)C(=O)O,6.48

# Source: paper PMC4336329 (PLoS ONE, 2015)
